The text below walks through data of the BET-seq Pho4 binding data (Le et al. 2018).

Some of the results follow. Values were computed here from the reads of four pooled replicates and scatter widely.

The target of the test is T1, Pho4 (S. cerevisiae) (UniProt P07270).
T1 sequence: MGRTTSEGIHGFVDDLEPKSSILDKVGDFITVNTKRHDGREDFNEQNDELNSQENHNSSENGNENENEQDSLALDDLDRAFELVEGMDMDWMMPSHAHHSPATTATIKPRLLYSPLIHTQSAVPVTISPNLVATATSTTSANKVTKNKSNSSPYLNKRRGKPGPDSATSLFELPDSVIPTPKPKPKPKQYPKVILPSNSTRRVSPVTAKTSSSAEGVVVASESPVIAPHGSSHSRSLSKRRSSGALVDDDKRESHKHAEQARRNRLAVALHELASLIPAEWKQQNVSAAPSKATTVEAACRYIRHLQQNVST
Put plainly: relative binding free energy (BET-seq); higher = weaker binding. The note with it: reference: library average.
On to TAGTACACGTGGCTTT, for which the “relative binding free energy” value turned out to be 0.13 kcal/mol. In the case of TGGGTCACGTGAAGCA it was 0.37 kcal/mol; in that of CGTTACACGTGGGAGT, 0.02 kcal/mol; in that of TTAGTCACGTGGATAC, 0.12 kcal/mol. The result for ATAGACACGTGAGTGT reads 0.16 kcal/mol; that for TTAGTCACGTGGGGAT, 0.09 kcal/mol; that for AGCGGCACGTGTGCTT, -0.04 kcal/mol. As for TGCGTCACGTGTATGT, the “relative binding free energy” value is 0.15 kcal/mol. In the case of ACTGGCACGTGGTTGT it was -0.09 kcal/mol; in that of TGGAACACGTGTTAAT, 0.11 kcal/mol. In the case of CTCGGCACGTGGCTGG, the “relative binding free energy” value is -0.14 kcal/mol. Turning to TTGCACACGTGTTGTA, the “relative binding free energy” value was -0.03 kcal/mol. In the case of TAGGTCACGTGATAGG it was 0.26 kcal/mol. With GGGTCCACGTGTCGTG, the “relative binding free energy” value was found to be 0.13 kcal/mol.

As for CAGGGCACGTGAGTGA, the “relative binding free energy” value worked out at 0.18 kcal/mol. Take CATGTCACGTGGTGAG: the “relative binding free energy” value came to 0.12 kcal/mol. The result for GGGCGCACGTGGAGTT reads 0.07 kcal/mol; that for AGATTCACGTGTTGAA, 0.24 kcal/mol. The result for CGTAACACGTGATTTT reads 0.25 kcal/mol. The result for GTTTCCACGTGAAGGT reads 0.5 kcal/mol; that for TGGTCCACGTGGATGG, -0.02 kcal/mol; that for GGAGACACGTGCTGTG, 0.07 kcal/mol.

With TAAAGCACGTGGTGCG, the “relative binding free energy” value is -0.19 kcal/mol. For the sequence GTTAACACGTGAGCGT, the “relative binding free energy” value was 0.11 kcal/mol.

Regarding GGTTACACGTGGTTTA, the “relative binding free energy” value was 0.09 kcal/mol. The result for TTTGGCACGTGTGCTT reads -0.02 kcal/mol; that for GACCGCACGTGAGGGG, 0.17 kcal/mol. In the case of TTATTCACGTGTCTGG it was 0.35 kcal/mol; in that of TTGATCACGTGTACAT, 0.14 kcal/mol. Turning to GTTTTCACGTGTGGGA, the “relative binding free energy” value was determined as 0.38 kcal/mol.

For GGTGGCACGTGTAAGC, the “relative binding free energy” value is 0.09 kcal/mol. The result for GTTGACACGTGGTGAG reads 0 kcal/mol; that for ATCGTCACGTGAAGTT, 0.35 kcal/mol. The result for TATTACACGTGAGGCT reads 0.24 kcal/mol; that for GTATTCACGTGGGTCT, 0.25 kcal/mol; that for TATGCCACGTGCGGGG, -0.3 kcal/mol. With CGTGTCACGTGTTGGG, the “relative binding free energy” value worked out at 0.06 kcal/mol.

In the case of AGATCCACGTGGGGTA, the “relative binding free energy” value came out at 0.02 kcal/mol.

Consider TCGGGCACGTGTTCAT, for which the “relative binding free energy” value was 0.13 kcal/mol. The result for TAAATCACGTGGGTTA reads 0.12 kcal/mol; that for TAGGTCACGTGAGTGG, 0.2 kcal/mol; that for TTTCTCACGTGTGTTG, 0.22 kcal/mol. In the case of TTAGTCACGTGGCGAT, the “relative binding free energy” value was 0.09 kcal/mol. On to TAGCTCACGTGGGGCA, for which the “relative binding free energy” value turned out to be 0.06 kcal/mol. Take TTGGTCACGTGCTTGG: the “relative binding free energy” value turned out to be 0.22 kcal/mol. Take TGCGGCACGTGTTAAT: the “relative binding free energy” value was -0.08 kcal/mol.

Regarding ATGGACACGTGGCGGC, the “relative binding free energy” value is -0.06 kcal/mol. In the case of GTTTGCACGTGTGAAG it was 0.05 kcal/mol. In the case of TCAGGCACGTGGGGCT, the “relative binding free energy” value is -0.28 kcal/mol.

CGCGACACGTGGGGGG: the “relative binding free energy” value was -0.18 kcal/mol.

For GGTCTCACGTGTTTCG, the “relative binding free energy” value turned out to be 0.21 kcal/mol. Consider ATTGACACGTGATAGT, for which the “relative binding free energy” value turned out to be 0.04 kcal/mol. In the case of ACGCGCACGTGGGGGA it was -0.25 kcal/mol; in that of TAGTGCACGTGTGGCC, -0.02 kcal/mol.

With GTGTTCACGTGAGCGT, the “relative binding free energy” value was determined as 0.31 kcal/mol.

GCTCGCACGTGGTAGG: the “relative binding free energy” value was -0.02 kcal/mol. For CATTGCACGTGGAGAT, the “relative binding free energy” value stood at 0.1 kcal/mol. Take GAGGTCACGTGGTTCT: the “relative binding free energy” value is 0.16 kcal/mol.

On to TTTGTCACGTGATAGG, for which the “relative binding free energy” value is 0.25 kcal/mol. The result for TAGTACACGTGGTGCT reads -0.09 kcal/mol. TGGGACACGTGTCAGT: the “relative binding free energy” value is 0.09 kcal/mol. The result for GGATACACGTGGAGAG reads 0.24 kcal/mol. In the case of TAAGACACGTGTCTGT, the “relative binding free energy” value stood at 0.02 kcal/mol. In the case of CGGGGCACGTGGGAGT, the “relative binding free energy” value is -0.13 kcal/mol. As to GTTTTCACGTGGATAA, the “relative binding free energy” value was 0.23 kcal/mol. Turning to ATTTACACGTGTTGAT, the “relative binding free energy” value turned out to be 0.19 kcal/mol. Consider AAATGCACGTGGGAAG, for which the “relative binding free energy” value turned out to be 0.12 kcal/mol.

Regarding GGGTGCACGTGTATCA, the “relative binding free energy” value is -0.03 kcal/mol. Regarding AATTTCACGTGTGTCG, the “relative binding free energy” value was 0.39 kcal/mol. For the sequence TTTGGCACGTGCAATG, the “relative binding free energy” value was -0.14 kcal/mol.

Consider ATTCACACGTGGGAAG, for which the “relative binding free energy” value amounted to 0.09 kcal/mol.

In the case of TATCTCACGTGATTGT, the “relative binding free energy” value is 0.33 kcal/mol. Consider TTATTCACGTGGGCTG, for which the “relative binding free energy” value came to 0.04 kcal/mol. The result for TTTCTCACGTGATTGT reads 0.3 kcal/mol; that for TCGTGCACGTGGTCAG, -0.12 kcal/mol; that for ATGATCACGTGGCATG, 0.04 kcal/mol.

As for ATGTCCACGTGATGGG, the “relative binding free energy” value stood at 0.03 kcal/mol.

For the sequence CGGGCCACGTGTGGTA, the “relative binding free energy” value was -0.07 kcal/mol. The result for GGATACACGTGGGGTA reads -0.08 kcal/mol; that for TGGTACACGTGTTGGA, 0.04 kcal/mol. The result for TGATCCACGTGTTCGG reads 0.15 kcal/mol; that for TAGTCCACGTGATAGG, 0.17 kcal/mol. The result for TTAGGCACGTGGGTAA reads -0.19 kcal/mol. As for GGTGCCACGTGGAAAT, the “relative binding free energy” value was 0.2 kcal/mol. The result for GAGCGCACGTGTAGTG reads 0.03 kcal/mol; that for GAGCGCACGTGGAGGT, 0.01 kcal/mol. Turning to TTGAGCACGTGGTCTA, the “relative binding free energy” value is -0.08 kcal/mol. In the case of AATGTCACGTGTTGTG it was 0.09 kcal/mol; in that of GATATCACGTGAGGTA, 0.45 kcal/mol. In the case of CGGAACACGTGTGGGA it was 0.05 kcal/mol; in that of GTCTGCACGTGTTGTA, 0.07 kcal/mol. The result for ACTCGCACGTGTGTGT reads -0.12 kcal/mol; that for AGTTCCACGTGGCGTG, 0.06 kcal/mol. For the sequence TAGGTCACGTGCTATG, the “relative binding free energy” value is -0.15 kcal/mol. The result for TTTGTCACGTGTCACT reads 0.12 kcal/mol; that for GTGGTCACGTGCCGGC, 0.12 kcal/mol; that for GAGGGCACGTGCAAGG, 0.04 kcal/mol. In the case of AGGGTCACGTGCGTTC, the “relative binding free energy” value amounted to 0.1 kcal/mol. The result for TTCGCCACGTGTGAGT reads 0.07 kcal/mol; that for GATGTCACGTGTTCGG, 0.13 kcal/mol. In the case of CGTGTCACGTGTCTTT it was 0.02 kcal/mol.

For the sequence TCTGGCACGTGGTTAG, the “relative binding free energy” value is -0.15 kcal/mol.

Take GGCGGCACGTGGTGGT: the “relative binding free energy” value worked out at 0.02 kcal/mol.

In the case of CGGGTCACGTGTAGTA, the “relative binding free energy” value amounted to 0.08 kcal/mol. In the case of TAGTGCACGTGACTTG it was 0.06 kcal/mol; in that of GTGGCCACGTGAAGGG, 0.07 kcal/mol; in that of GGTTCCACGTGAGGTA, 0.18 kcal/mol. In the case of GTATACACGTGAGGGA it was 0.37 kcal/mol. In the case of GAATGCACGTGATGGA, the “relative binding free energy” value stood at 0.21 kcal/mol. The result for TTTGGCACGTGACGGT reads 0.08 kcal/mol; that for CGTGTCACGTGGAGCG, 0 kcal/mol. The result for TGTGCCACGTGTTTAG reads -0.01 kcal/mol; that for TGGGCCACGTGTGCGG, -0.17 kcal/mol. GGAGGCACGTGCAGGG: the “relative binding free energy” value was -0.07 kcal/mol. In the case of TAGGTCACGTGTTCGG, the “relative binding free energy” value was 0.13 kcal/mol. In the case of TGGAGCACGTGGAGAA it was -0.14 kcal/mol; in that of TTTTCCACGTGAAGGG, 0.33 kcal/mol. As for ATATGCACGTGTTTAA, the “relative binding free energy” value was -0.19 kcal/mol. In the case of TCAGGCACGTGTATTT it was 0.06 kcal/mol. On to TATTGCACGTGCGGCG, for which the “relative binding free energy” value is -0.09 kcal/mol. In the case of TGGTGCACGTGCTGGT it was -0.04 kcal/mol. The result for GTTTTCACGTGGAGTG reads 0.31 kcal/mol. The result for ATGATCACGTGGGGGA reads -0.02 kcal/mol; that for TTATACACGTGTGGAC, 0.18 kcal/mol; that for AGTGTCACGTGTTATT, -0.03 kcal/mol. As for TGAGTCACGTGTGTGC, the “relative binding free energy” value turned out to be 0.09 kcal/mol. Regarding GGCTTCACGTGTGTAG, the “relative binding free energy” value was determined as 0.31 kcal/mol. Consider TTGGACACGTGCGTAG, for which the “relative binding free energy” value came to 0.08 kcal/mol. The result for TTTAACACGTGTTATG reads 0.14 kcal/mol. With TTGGTCACGTGTTAAC, the “relative binding free energy” value was 0.13 kcal/mol.

With TTTAGCACGTGGAACG, the “relative binding free energy” value came out at 0.07 kcal/mol. In the case of CCGGGCACGTGGTTGG it was -0.15 kcal/mol; in that of TTTTTCACGTGTGGGG, 0.4 kcal/mol; in that of TGCTACACGTGGTCGG, -0.06 kcal/mol.

AGTGTCACGTGATGAG: the “relative binding free energy” value turned out to be 0.18 kcal/mol.

Turning to GGCGGCACGTGATAGT, the “relative binding free energy” value stood at 0.08 kcal/mol. In the case of GGTCACACGTGGTGAA it was 0.16 kcal/mol; in that of GTGGTCACGTGTGTTC, 0.23 kcal/mol. On to CGTGTCACGTGGTGGT, for which the “relative binding free energy” value is -0.01 kcal/mol.

With AATTACACGTGGAAGT, the “relative binding free energy” value worked out at 0.18 kcal/mol.

Turning to GATTTCACGTGGATGT, the “relative binding free energy” value stood at 0.27 kcal/mol. On to ACAAGCACGTGGTGTG, for which the “relative binding free energy” value was -0.29 kcal/mol. Take TTGCGCACGTGGTTTG: the “relative binding free energy” value was -0.11 kcal/mol. The result for GGGTGCACGTGCGACG reads -0.09 kcal/mol. As for GTAGGCACGTGGGAGT, the “relative binding free energy” value is -0.17 kcal/mol.

Take CGGGTCACGTGGGAAT: the “relative binding free energy” value was -0.02 kcal/mol.
